PubChem BioAssay (NCATS)
Some of the results follow. Shown are side measurements of this screen, not its main read-out; they come without a call. Compounds called inactive in the main read-out are mostly missing here.

test: qHTS Assay for Lipid Storage Modulators (AID 1519); details: Drosophila S3 cells, BODIPY lipid droplet/cell ratio, laser cytometry; measured here: lipid channel max response; cells loaded with oleic acid
Summary of the method: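 Cells seeded at 5,000 per well were treated with compounds over a concentration series and loaded with oleic acid (400 uM, as added). Lipid droplet fluorescence (488 nm excitation, 500-530 nm channel) was read by laser-scanning cytometry and normalized to 20 uM Triacsin C.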

Which max response does the source give for `CC(C)c1cccc(O)c(=O)c1` here?
Its max response is -34.3%.

With `COCCn1c(=O)c(-c2ccc(F)cc2)nc2cnc(Oc3cccc(Cl)c3)nc21` as the compound, how does the max response read?
Its max response is 18.2%.

With `O=C1C=CC2=C3c4cc(O)c(O)cc4C[C@]3(O)COC2=C1` as the compound, how does the max response read?
The max response was -40.8%.

Which max response does the source give for `CCCC[P+](CCCC)(CCCC)Cc1ccc(NC(=O)[C@@H](Cc2ccc3ccccc3c2)NC(=NC2CCCCC2)NC2CCCCC2)cc1` here?
The max response was -30.8%.

For `O=c1c(-c2ccc(F)cc2)nc2cnc(Oc3ccccc3)nc2n1C[C@H]1CCCO1`, which max response is on record?
Its max response is -42.5%.

Which max response does the source give for `COCCn1c(=O)c(-c2cccs2)nc2cnc(Oc3cccc(Cl)c3)nc21` here?
The max response was -26.8%.

Which max response does the source give for `COCC(=O)N1CCC2(CCCN(Cc3nccs3)C2)CC1` here?
Its max response is 35.8%.

For `O=C(c1cnccn1)N1CCC2(CC1)CN(Cc1ccccc1)C2`, which max response is on record?
The max response was 17.5%.

Which max response does the source give for `[Li+]` here?
The max response was 55.2%.

Which max response does the source give for `C[C@]12CCC3c4ccc(O)cc4CCC3C1CCC2OC(=O)CCC1CCCC1` (some centres not stated) here?
The max response was -46.8%.

For `COc1ccc2[nH]cc(CCNc3ccnc(-c4ccccc4C)n3)c2c1`, which max response is on record?
The max response was 19.2%.

With `CN1CCN(c2ncc3nc(-c4cn(C)c5ccccc45)c(=O)n(CCc4ccccc4)c3n2)CC1` as the compound, how does the max response read?
Its max response is 2.96%.

For `COc1ccc(-c2nc3cnc(Oc4ccccc4)nc3n(C3CC3)c2=O)cc1`, which max response is on record?
Its max response is 26.3%.

With `O=c1c(-c2cccc(Cl)c2)nc2cncnc2n1C1CC1` as the compound, how does the max response read?
Its max response is 17%.

Which max response does the source give for `CN(C)C(=O)c1ccc(-c2nc(Nc3ccc(F)cc3)c3ccccc3n2)cc1` here?
Its max response is -0.181%.

For `CCC1OC(=O)C(C)[C@@H](O[C@H]2C[C@@](C)(OC)C(O)C(C)O2)C(C)[C@@H](O[C@@H]2OC(C)CC(N(C)C)C2O)[C@@](C)(O)CC(C)C2NC(COCCOC)O[C@H](C2C)[C@@]1(C)O` (some centres not stated), which max response is on record?
The max response was 51.5%.

Which max response does the source give for `COCCn1c(=O)c(-c2ccccc2)nc2cnc(Oc3ccc(OC)cc3)nc21` here?
Its max response is -5.45%.

Which max response does the source give for `CCNc1ncc2nc(CCc3ccccc3)c(=O)n(CCC#N)c2n1` here?
The max response was 16.9%.

Which max response does the source give for `NC(=O)c1cc[n+](CC2=C(C(=O)O)N3C(=O)C(NC(=O)C(c4ccccc4)S(=O)(=O)[O-])C3SC2)cc1` (configuration not stated) here?
Its max response is 34.8%.

For `CCCc1ncc(C[n+]2ccccc2C)c(N)n1`, which max response is on record?
Its max response is 44.5%.

For `CN1CCN(c2ncc3nc(-c4ccc(Cl)cc4)c(=O)n(C)c3n2)CC1`, which max response is on record?
The max response was 16.3%.

With `c1ccc(CNc2ccnc(-c3cccnc3)n2)cc1` as the compound, how does the max response read?
Its max response is 37.8%.
